The other results are listed elsewhere or left out.
tested on: PfHDP1 homeodomain (GST-tagged); test: gcPBM binding intensity (ln(normalized median fluorescence intensity)); higher = stronger DNA binding
In short: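 Binding intensity is the highest Masliner-normalised natural-log median intensity over replicate spots in either probe orientation. To obtain it, GST-tagged P. falciparum DNA-binding domains made in E. coli were incubated for 1 h on an Agilent 4 × 180k array of primer-extended double-stranded 36-bp intergenic genomic probes plus negative controls. Detection used Alexa488 anti-GST antibody with scanning at 488 nm.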

Sequence | gcPBM binding intensity (ln)
TATACATACACATACACACATACACCCATACACATA [CACACA_site1746] | 7.33
TTCTTCTAATCCTTTTATCTCATTAAAAAAATATAA [CACACA_negctrl_site12] | 6.52
AATAATAAATCAAACTGTACATATATTTTCAATCTA [XGTACX_site3344] | 6.18
TGTAGTCTGGAGAAAAGTACACAGTATCCGGTAACT [XGTACX_site4934] | 6.18
TTTTTTTTTTTGTTCACACATATATATATATATATA [CACACA_site5376] | 9.44
TTATAAATAAAAAATACACACATATATTTATTTATA [CACACA_site6242] | 6.39
ATAATATATGAAAGTGGTACACAAAGGAAAATAAAA [XGTACX_site333] | 7.61
TTTATATTAATTGATGTGCACTGAAATATTTGTCCA [GTGCAC_site9655] | 9.08
ACCCTATAGGTAACTACACACCGCATATTGTTTACT [CACACA_site7436] | 6.81
TTAACTATGAATACATGTACATGAAAATATTTCAAT [XGTACX_site1069] | 6.59
AAAATTAAACAAAGTTGTACAAAATAATAATAAAAG [XGTACX_site7515] | 7.05
AAATTAATAAAAAATGGTACACAAAATGGATGTATA [XGTACX_site1561] | 6.65
GGCAAATTTATTATACCCACATACATACATACATAC [XGTACX_negctrl_site186] | 7.62
CCATGTCACAATTTTTCACACACAAAATTTATATAC [CACACA_site8628] | 6.9
ATATACACACATAAGTGTACTTATATTTCATATATA [XGTACX_site8646] | 6.68
TAATTAACAAACTATAGTACACAAAATACTTCATAT [XGTACX_site6375] | 6.35
AAAATAAAATAAAACACAAAAAAATAAAACAAAATA [CACACA_negctrl_site16] | 6.75
TCTATGCGTTTTAATAGTACATATAAAATTTATACA [XGTACX_site6986] | 6.37
AAATATGTTTATATATGTACTTATAATTCAAAATAT [XGTACX_site2167] | 6.12
TATATATCCATGTGTACACACAAAAAAAAATAAAGT [CACACA_site7107] | 7.52
AAATAAAATATATACATATATATATTATTTAGTAAT [XGTACX_negctrl_site375] | 6.28
TATGTATATTATATGACACACATTTATATATATATA [CACACA_site1167] | 8.77

Sequence | gcPBM binding intensity (ln)
AATAAATAAATAAATATATATATATATATATATATG [CACACA_negctrl_site899] | 7.21
TTTTGTTGATTTATATCTGTAGGGTTTAATATAACA [XGTACX_negctrl_site174] | 6.2
TTATTTTTGTGTAAGGTGCTATATATAATGTTTTTA | 7.05
AAAAAGGATAAACACACACACACACCGATATATATA [CACACA_site8206] | 6.97
AACGAAATCATCAAGTGTACTAGTTTATTATTAATA [XGTACX_site6161] | 6.29
AAATGTGATATAAGTACACACACATATGTATATATA [CACACA_site8539] | 6.7
ATATTATATATATACACACACACATGCATGCACCTA [CACACA_site106] | 9.86
TTTTTTAAATATATGGTGCATAGAAAGATATTATAC [GTGCAC_site9984] | 9.71
ACATGTGAACATTCAATGCACACGATGTAATTATAC [CACACA_site14] | 8.41
ATGTGTTAAAAATGCACACAAAAAAATATACATATA [CACACA_site295] | 9.92
CTTAAATTTTACTGAAGTACAAAATCGGTTCAATGA [XGTACX_site3292] | 6.1
TATACATATTTTTTTTGTACATATATAATATATATA [XGTACX_site2399] | 6.59
GGGAAAAAAAAAAGCACACATACGTAAATATATAAC [CACACA_site226] | 6.6
AATTAAATTCGGTACTGTACATTTCAAAAATATACG [XGTACX_site48] | 6.15
CAATTATATAATTGAAGTACTAGGAAAGATATATAT [XGTACX_site5459] | 7.09
TAAAAAAATATTACATGTACATAAAATATATATATA [XGTACX_site4633] | 8.22
TTTAAAAAAAGCAGTACATGCAAAATAATAACAAGC [TGCATGCA_site392] | 7.52
TTGCATTAATTTATGTGTACATATAAATTTTTATTT [XGTACX_site3060] | 6.94
TATAAATATAAATATACACACATATATATATATATA [CACACA_site1678] | 9.33
CTTATAGGTCATTTCCTTGACCCCCTTTGTTGTACT [CACACA_negctrl_site551] | 6.45
ATCAGTCGGCAGGACAGTACACAGTAGCCAGAAAAT [XGTACX_site2550] | 6.46
AAAGAATTTGCATATACACACAAAAAAATATATACA [CACACA_site386] | 7.12
